Data reported in article PMC4336329 (PLoS ONE, 2015).
Out of some 310,000 compounds screened, about 14,000 (4.5%) showed an effect of 50% or more. The effect is printed as a negative number. The list shows a part of the results.

Molecular target: human ether-à-go-go-related gene (hERG) potassium channel (human, UniProt Q12809)
Experiment: primary screen, population patch clamp on CHO cells stably expressing hERG
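Further: peak tail current of the secondary pulse compared with the same well before compound.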

human ether-à-go-go-related gene (hERG) potassium channel, sequence (Q12809 whole entry, looked up): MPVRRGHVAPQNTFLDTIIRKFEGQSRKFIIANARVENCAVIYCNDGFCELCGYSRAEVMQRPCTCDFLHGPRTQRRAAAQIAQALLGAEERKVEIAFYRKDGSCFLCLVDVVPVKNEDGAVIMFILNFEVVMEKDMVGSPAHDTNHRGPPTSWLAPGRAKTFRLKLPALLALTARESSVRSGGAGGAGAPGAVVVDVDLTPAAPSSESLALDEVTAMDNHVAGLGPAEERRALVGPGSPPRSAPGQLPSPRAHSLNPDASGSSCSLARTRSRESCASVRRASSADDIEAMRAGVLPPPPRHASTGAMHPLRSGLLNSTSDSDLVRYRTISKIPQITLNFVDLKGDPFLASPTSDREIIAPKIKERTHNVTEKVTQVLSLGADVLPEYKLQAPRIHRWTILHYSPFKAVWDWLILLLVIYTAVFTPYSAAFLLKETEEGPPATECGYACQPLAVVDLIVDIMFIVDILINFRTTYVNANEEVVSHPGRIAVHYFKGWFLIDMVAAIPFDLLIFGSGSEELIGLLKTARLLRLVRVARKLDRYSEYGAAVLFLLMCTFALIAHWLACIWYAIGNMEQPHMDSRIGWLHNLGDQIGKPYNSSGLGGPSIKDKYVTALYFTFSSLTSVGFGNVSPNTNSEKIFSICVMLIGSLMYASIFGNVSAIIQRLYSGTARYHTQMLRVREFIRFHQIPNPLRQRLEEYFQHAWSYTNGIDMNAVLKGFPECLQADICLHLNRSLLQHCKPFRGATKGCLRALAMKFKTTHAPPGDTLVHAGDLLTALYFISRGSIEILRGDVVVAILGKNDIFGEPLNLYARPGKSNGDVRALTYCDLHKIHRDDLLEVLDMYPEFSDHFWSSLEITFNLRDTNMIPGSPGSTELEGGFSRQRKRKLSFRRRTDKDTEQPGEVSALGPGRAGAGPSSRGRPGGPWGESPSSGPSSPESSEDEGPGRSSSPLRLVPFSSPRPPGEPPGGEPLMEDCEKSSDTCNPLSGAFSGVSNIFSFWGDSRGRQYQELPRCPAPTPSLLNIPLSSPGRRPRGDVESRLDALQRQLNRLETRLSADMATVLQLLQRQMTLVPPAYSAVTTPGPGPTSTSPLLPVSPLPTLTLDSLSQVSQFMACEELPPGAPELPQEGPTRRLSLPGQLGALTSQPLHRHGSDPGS

| SMILES | hERG current change (%, negative = inhibition) at 10uM [%] |
| --- | --- |
| CC(O)CNc1ccc([N+](=O)[O-])c2cccnc12 (centres unmarked) | -18.6 |
| O=C1COc2ccc(C(=O)COC(=O)c3c(F)cccc3Cl)cc2N1 | 2.35 |
| Cc1ccc(S(=O)(=O)N2CCCN(C(=O)OC(C)(C)C)CC2)cc1 | 2.43 |
| Cc1cc(C(=O)NCc2cccnc2)no1 | -0.671 |
| CC(C)c1ccc(NC(=O)C2CC(=O)N(C(C)C)C2)cc1 (centres unmarked) | -2.82 |
| CC(=O)Nc1cccc(NC(=O)c2ccc([N+](=O)[O-])cc2Cl)c1 | -3.49 |
| CCC(Sc1ncccc1C(=O)OC(C)C)C(=O)NCc1ccco1 (centres unmarked) | -9.18 |
| COc1cccc(NC(=O)CN(C)C(=O)CC2CC3CCC2C3)c1 (centres unmarked) | -10.6 |
| CC1CC(C)CN(C(=O)COC(=O)c2nn(C)c(=O)c3ccccc23)C1 (centres unmarked) | -37.2 |
| C[C@]1(C2CCCC2)Cc2cc(OCC(=O)O)c(Cl)c(Cl)c2C1=O | -0.892 |
| CN(Cc1ccc(Cl)cc1Cl)C(=O)c1cc(=O)c2ccccc2o1 | -53.4 |
| CCOC(=O)c1ccc(NC(=O)Nn2cnnc2)cc1 | 25.6 |
| Cc1oc(-c2cccs2)nc1CSCC(=O)NC1CC1 | -3.82 |
| CCOc1ccc(NC(=O)CC2C(=O)N(c3ccc(OC)cc3)C(=O)N2CCc2ccc(OC)c(OC)c2)cc1 (centres unmarked) | -16.9 |
| Cc1cc2ccccc2n1CCNC(=O)c1ccccc1 | 10.3 |
| Cc1nnc(C)n1/N=C/C=C/c1ccccc1 | 8.4 |
| Cc1csc(NC(=O)c2c(-c3ccccc3)noc2C)n1 | 20.3 |
| COC(=O)CCC(=O)Nc1ccc(N=Nc2ccccc2)cc1 | 28.7 |
| COc1cc([N+](=O)[O-])cc(/C=N/NC(=O)Cn2nccc2C)c1O | 4.45 |
| CC12CCC(c3c(C(=O)N4CCOCC4)nn(-c4ccccc4)c31)C2(C)C (centres unmarked) | -18.3 |
| Cc1sc(NC(=O)C2=COCCO2)c(C#N)c1C | 12.1 |
| CCC(C(=O)OC)n1cnc2scc(-c3ccc(C)c(C)c3)c2c1=O (centres unmarked) | 6.51 |
| Cl.Oc1cc2c(cc1O)C(c1ccccc1)CNCC2 (centres unmarked) | -3.82 |

| SMILES | hERG current change (%, negative = inhibition) at 10uM [%] |
| --- | --- |
| COc1ccc(CCC(=O)OCC(=O)Nc2c(C)nn(-c3ccccc3)c2C)cc1 | -14.2 |
| CCS(=O)(=O)N1N=C(c2cccc(NS(C)(=O)=O)c2)CC1c1cccs1 (centres unmarked) | -34.3 |
| CCn1c(SCC(=O)Nc2nc(C)cs2)nnc1-c1ccoc1C | -1.96 |
| O=C(NC(=S)NC1CCCc2ccccc21)c1ccco1 (centres unmarked) | 10.5 |
| N#CC1=C(SCc2ccccc2Cl)NC(=O)C(C(N)=O)C1 (centres unmarked) | 7.57 |
| CCOC(=O)C1(CCCc2ccccc2)CCN(C(=O)c2cc(C)nc(C)n2)CC1 | -16.4 |
| CN(C)S(=O)(=O)c1ccc(C(=O)OCCc2ccccc2)cc1 | 15 |
| CCCCNC(=O)c1onc(CSc2ccccc2)c1C(=O)NCCCC | -5.73 |
| Cc1ccc(Oc2ncnc3sccc23)cc1 | -5.48 |
| CCOC(=O)CSc1ncnc2c1cnn2-c1ccc(C)cc1C | -19.2 |
| Cc1ccc(NC(=O)CNC(=O)c2ccc(C)s2)nc1 | -5.98 |
| Cc1ccn2c(NC3CCCC3)c(-c3ccncc3)nc2c1 | -10.2 |
| O=C(Cc1ccc(Cl)c(Cl)c1)Nc1ccc(S(=O)(=O)Nc2ncccn2)cc1 | 17.8 |
| COC(C/C=C/[C@H](O)[C@@H](C)OCc1ccccc1)OC | 17.2 |
| CC(=O)Nc1ccc(-c2csc(NC(=O)C3CSC4(C)CCC(=O)N34)n2)cc1 (centres unmarked) | 9.04 |
| CN(C)c1ccc(S(=O)(=O)N2CCCCC2)cc1NC(=O)CN1C(=O)NC(C)(c2ccccc2)C1=O (centres unmarked) | -3.86 |
| Cc1ccc(C(=O)n2c(-c3ccccc3)cnc2SCC(=O)Nc2ccccc2)cc1 | 15.6 |
| O=c1[nH]c(CN2CCc3ccccc3C2)nc2ccccc12 | 5.47 |
| Cc1ccccc1N=C1NC(=O)/C(=C/c2cccn2C)S1 | 7.25 |
| CC(C)n1ncc2c(C(=O)N3CCN(Cc4ccc(Br)s4)CC3)cc(C3CC3)nc21 | -4.36 |
| COc1ccccc1NC(=S)NC(=O)c1ccc(Cn2cc(Br)cn2)cc1 | 1.12 |
| O=C(Cc1nc2ccccc2[nH]c1=O)c1ccc(Cl)cc1 | 7.6 |
| CC1(C)Cc2c(c(N3CCOCC3)nc3sc(C(=O)Nc4ccc(Cl)cc4)c(N)c23)CO1 | 12 |

| SMILES | hERG current change (%, negative = inhibition) at 10uM [%] |
| --- | --- |
| O=C(Nc1cccc(-c2cccc(Cl)c2)c1)C1CCN(Cc2ccc(CO)o2)CC1 | -68 |
| Clc1cccc(N2CCN(Cc3nnc(-c4ccccc4)o3)CC2)c1 | -25.5 |
| COc1cc(OC)c(OC)cc1CN1CCCC(C(=O)c2ccc3c(c2)OCO3)C1 (centres unmarked) | -67.1 |
| CSc1cccc(CN2CCC(Oc3ccc(C(=O)N4CCCCC4)cc3)CC2)c1 | -25.2 |
| CCn1c(N)c(Br)c(=O)[nH]c1=O | 25 |
| COc1cccc(COc2cc3ccccc3nc2C)c1 | 7.99 |
| CC/C(=N\NC(=O)c1ccc(-c2ccccc2)cc1)C12CC3CC(CC(C3)C1)C2 | 0.121 |
| O=C(NCCc1ccccc1)c1ccc2c(c1)S(=O)(=O)c1ccccc1C2=O | -2.55 |
| O=C(CSc1nc2ccccc2[nH]1)Nc1cccc(S(=O)(=O)N2CCOCC2)c1 | -16.9 |
| COc1ccc(CCNC(=O)c2ccc3ccccc3n2)cc1 | -5.65 |
| Cc1cc(NC(=O)CCN2CCC(C(N)=O)CC2)ccc1Br | -26.7 |
| COC(=O)[C@@]1(Cc2ccc(OC)cc2)[C@H]2c3cc(C(=O)N4CCCC4)n(CCSCCO)c3C[C@H]2CN1C(=O)c1ccccc1 | -17.6 |
| O=C(CSc1nc(-c2ccccc2F)nc2nc[nH]c12)Nc1c(Cl)cc(Cl)cc1Cl | -6.09 |
| COC(=O)C(C)N(C#N)c1nc(NC(C)C)nc(SC)n1 (centres unmarked) | -5.75 |
| Cc1cc(C(F)(F)F)nn1Cc1n[nH]c(=S)n1-c1ccc(Cl)cc1 | 20.3 |
| CC(Sc1ccc2ccccc2c1)C(=O)NC(N)=O (centres unmarked) | 11.7 |
| Cc1ccc2c(c1)N(CCC(=O)NCc1ccco1)C(=O)CO2 | -14 |
| CC(C)(C)NC(=O)c1cnn2c1NC(c1ccc(F)cc1)CC2C(F)(F)F (centres unmarked) | 2.13 |
| N#C/C(=C/c1ccc(N2CCCCCC2)o1)c1ccc(F)cc1 | 13.9 |
| CC(NS(=O)(=O)c1ccc(Br)cc1)C(=O)NCc1ccco1 (centres unmarked) | 1.98 |
| COc1ccc(NC(=O)[C@H](CCS(C)(=O)=O)N2Cc3ccccc3C2=O)c(OC)c1 | 1.71 |
| CCC(Sc1ccc2nnc(-c3ccc(OC)c(OC)c3)n2n1)C(=O)O (centres unmarked) | -0.394 |
| O=C(CN1CC(c2ccccc2)CC1=O)OCc1ccccc1F (centres unmarked) | -21.1 |

| SMILES | hERG current change (%, negative = inhibition) at 10uM [%] |
| --- | --- |
| COc1ccccc1N1CCN(S(=O)(=O)c2cn(C)cn2)CC1 | 17.3 |
| Cc1ccc(-n2nc(C(=O)O)cc2-c2ccccc2Cl)cc1 | 27.1 |
| CC(C)(C)N=C1NN=C(c2cc3ccccc3o2)CS1 | -9.99 |
| CCc1noc(C)c1C(=O)N1CCCC(CCC(=O)NCc2cccc(OC)c2)C1 (centres unmarked) | 20.2 |
| O=C(NCc1ccccc1F)c1cccc(S(=O)(=O)N2CCCCCC2)c1 | 7.87 |
| Cc1ccc(-c2cc(C#N)c(=O)n(Cc3c(Cl)cccc3Cl)c2)cc1 | -3.19 |
| Cc1cccc(N2C(=O)CCC2=O)n1 | -5.33 |
| O=C(Nc1ccc(S(=O)(=O)N2CCN(Cc3ccccc3)CC2)cc1)c1cnccn1 | -36.5 |
| C=CCn1c(CCNC(=O)c2ccc(Cl)c(Cl)c2)nnc1SCCOc1ccc(OC)cc1 | -9.24 |
| COc1ccc(OCc2nnc3n2N=C(c2ccccc2)C(CC(=O)O)S3)cc1 (centres unmarked) | 15.2 |
| CCOC(=O)N1CCN(S(=O)(=O)c2ccc3c(c2)SC(C)C(=O)N3)CC1 (centres unmarked) | 1.85 |
| COc1ccc(CC(=O)NCc2nnc(SCc3ccc(C)cc3)n2C)cc1 | 5.49 |
| CCN(CC(=O)NCCc1ccccc1)S(=O)(=O)c1ccc(C)cc1 | -43.2 |
| Clc1ccc(-c2cn3c(n2)CCC3)cc1 | -11.5 |
| Cc1ccc(CN2CCN(Cc3cnc(C)s3)CC2CCO)o1 (centres unmarked) | -1.95 |
| Cc1ccc(S(=O)(=O)C2(C(=O)NC3CCCCC3)CC2)cc1 | -0.446 |
| CCCc1[nH]nc2c1C(c1cc(OC)ccc1F)C(C#N)=C(N)O2 (centres unmarked) | -15.5 |
| O=[N+]([O-])c1ccc(N2CCN(C(=S)Nc3ccc(F)cc3F)CC2)cc1 | -18.5 |
| CCN(CC)S(=O)(=O)c1ccc(/C=C/C(=O)OCC(=O)N(C)C)cc1 | 6.75 |
| COCCn1c(SCc2ccc(C(=O)OC)o2)nnc1-c1c[nH]c2ccccc12 | -8.93 |
